In assay [1] the target is T1, CCDC114, yeast two-hybrid fusion (human) (UniProt Q96M63).
T1 sequence: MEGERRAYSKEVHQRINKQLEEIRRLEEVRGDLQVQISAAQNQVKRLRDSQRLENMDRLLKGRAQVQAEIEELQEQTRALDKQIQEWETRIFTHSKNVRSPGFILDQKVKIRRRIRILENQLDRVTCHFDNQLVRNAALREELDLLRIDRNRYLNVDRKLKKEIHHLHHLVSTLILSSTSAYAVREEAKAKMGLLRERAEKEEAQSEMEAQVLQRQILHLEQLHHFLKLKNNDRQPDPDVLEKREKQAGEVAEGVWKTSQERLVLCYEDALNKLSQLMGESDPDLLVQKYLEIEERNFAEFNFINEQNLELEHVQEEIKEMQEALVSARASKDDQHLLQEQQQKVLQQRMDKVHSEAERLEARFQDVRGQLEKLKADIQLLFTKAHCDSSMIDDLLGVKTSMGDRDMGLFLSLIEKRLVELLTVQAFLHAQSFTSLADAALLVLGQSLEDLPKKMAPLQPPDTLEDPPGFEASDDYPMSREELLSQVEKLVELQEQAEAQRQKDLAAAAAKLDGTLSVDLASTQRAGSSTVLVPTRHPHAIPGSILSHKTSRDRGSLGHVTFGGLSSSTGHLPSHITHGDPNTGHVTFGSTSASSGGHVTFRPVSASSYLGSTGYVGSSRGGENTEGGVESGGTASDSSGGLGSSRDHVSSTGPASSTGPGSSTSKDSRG
In words: two-hybrid; binary yeast two-hybrid; reporter genes HIS3 and ADE2 (growth on SD-LWAH) and LacZ (β-galactosidase filter lift assay). For orientation: A reporter such as luciferase makes a cellular process visible.

Protein sequences, listed by entry. Tags and fused reporters are not part of them.
UniProt A5D8V7: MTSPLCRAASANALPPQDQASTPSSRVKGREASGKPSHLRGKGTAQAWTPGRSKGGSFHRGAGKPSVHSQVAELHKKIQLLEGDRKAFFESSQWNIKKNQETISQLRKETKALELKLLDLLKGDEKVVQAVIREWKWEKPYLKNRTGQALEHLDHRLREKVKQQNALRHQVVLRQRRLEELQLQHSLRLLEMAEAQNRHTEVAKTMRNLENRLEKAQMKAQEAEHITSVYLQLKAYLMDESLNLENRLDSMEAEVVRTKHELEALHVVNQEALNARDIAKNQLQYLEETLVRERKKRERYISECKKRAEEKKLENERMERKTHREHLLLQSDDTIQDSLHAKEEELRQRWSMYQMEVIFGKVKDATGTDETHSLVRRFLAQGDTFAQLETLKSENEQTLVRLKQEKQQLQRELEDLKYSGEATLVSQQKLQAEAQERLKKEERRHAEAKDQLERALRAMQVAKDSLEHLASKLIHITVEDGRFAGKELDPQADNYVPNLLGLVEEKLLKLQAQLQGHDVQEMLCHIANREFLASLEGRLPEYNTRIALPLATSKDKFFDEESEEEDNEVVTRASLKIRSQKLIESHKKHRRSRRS

The target in assay [2] is T2, MNS1 (meiosis specific nuclear structural 1 protein), myc- or FLAG-tagged, expressed in HEK293 cells (human) (UniProt Q8NEH6).
T2 sequence: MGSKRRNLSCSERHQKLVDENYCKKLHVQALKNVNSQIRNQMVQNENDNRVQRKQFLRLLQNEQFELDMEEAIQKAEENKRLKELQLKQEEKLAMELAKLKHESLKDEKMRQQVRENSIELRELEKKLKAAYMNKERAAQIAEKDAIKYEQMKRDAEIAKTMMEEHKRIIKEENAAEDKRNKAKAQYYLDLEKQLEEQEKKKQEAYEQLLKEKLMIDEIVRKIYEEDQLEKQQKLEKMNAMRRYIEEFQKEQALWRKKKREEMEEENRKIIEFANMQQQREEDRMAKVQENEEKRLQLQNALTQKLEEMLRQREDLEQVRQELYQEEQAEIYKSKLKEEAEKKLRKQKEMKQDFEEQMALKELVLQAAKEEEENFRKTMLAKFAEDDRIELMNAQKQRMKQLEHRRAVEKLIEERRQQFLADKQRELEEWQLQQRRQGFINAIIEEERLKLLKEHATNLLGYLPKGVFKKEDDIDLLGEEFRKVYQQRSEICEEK
In words: co-IP; myc- and FLAG-tagged proteins co-expressed in HEK293 cells; lysis in 50 mM Tris-Cl pH 8.0, 150 mM NaCl, 1% IGEPAL, 0.5 mM EDTA, 10% glycerol; rabbit antibody overnight at 4°C, MagSi/protein A beads; blot with mouse anti-myc or anti-FLAG.

For assay [3], the target named is T3, CCDC114 (ODA docking complex component), myc- or FLAG-tagged, expressed in HEK293 cells (human) (UniProt Q96M63).
T3 sequence: T1 sequence
Described as above.

Assay [4] addresses T1, CCDC114, yeast two-hybrid fusion (human). In words: two-hybrid; binary yeast two-hybrid; reporter genes HIS3 and ADE2 (growth on SD-LWAH) and LacZ (β-galactosidase filter lift assay). The source holds these as a separate data set.
The target of assay [5] is MNS1, yeast two-hybrid fusion (human) (UniProt Q8NEH6). The assay is described as above.

Like-named read-outs stand apart in the source and are kept apart here. These are yes or no findings as the source states them, for the method shown. For part of these data: Binding seen in cells or lysates may run through a third protein. Some binding calls cover weakened binding; strength is not graded here. Tags and fused reporters may be left off the sequences shown.

Turning to “CCDC151, yeast two-hybrid fusion (from UniProt A5D8V7 1-595)”, the binding result in assay [1] is on record as “binds”.

B1: DNAI2 (ODA protein), myc- or FLAG-tagged, expressed in HEK293 cells (protein, UniProt Q9GZS0 1-605)
chain: MEIVYVYVKKRSEFGKQCNFSDRQAELNIDIMPNPELAEQFVERNPVDTGIQCSISMSEHEANSERFEMETRGVNHVEGGWPKDVNPLELEQTIRFRKKVEKDENYVNAIMQLGSIMEHCIKQNNAIDIYEEYFNDEEAMEVMEEDPSAKTINVFRDPQEIKRAATHLSWHPDGNRKLAVAYSCLDFQRAPVGMSSDSYIWDLENPNKPELALKPSSPLVTLEFNPKDSHVLLGGCYNGQIACWDTRKGSLVAELSTIESSHRDPVYGTIWLQSKTGTECFSASTDGQVMWWDIRKMSEPTEVVILDITKKEQLENALGAISLEFESTLPTKFMVGTEQGIVISCNRKAKTSAEKIVCTFPGHHGPIYALQRNPFYPKNFLTVGDWTARIWSEDSRESSIMWTKYHMAYLTDAAWSPVRPTVFFTTRMDGTLDIWDFMFEQCDPTLSLKVCDEALFCLRVQDNGCLIACGSQLGTTTLLEVSPGLSTLQRNEKNVASSMFERETRREKILEARHREMRLKEKGKAEGRDEEQTDEELAVDLEALVSKAEEEFFDIIFAELKKKEADAIKLTPVPQQPSPEEDQVVEEGEEAAGEEGDEEVEEDLA
As to B1, in assay [2], the binding result was “no binding”.

B2: DNAL1 (ODA protein), myc- or FLAG-tagged, expressed in HEK293 cells (protein, UniProt Q4LDG9 1-190)
chain: MAKATTIKEALARWEEKTGQRPSEAKEIKLYAQIPPIEKMDASLSMLANCEKLSLSTNCIEKIANLNGLKNLRILSLGRNNIKNLNGLEAVGDTLEELWISYNFIEKLKGIHIMKKLKILYMSNNLVKDWAEFVKLAELPCLEDLVFVGNPLEEKHSAENNWIEEATKRVPKLKKLDGTPVIKGDEEEDN
As for B2, the binding entry in assay [2] was “no binding”.

B3: MNS1 (meiosis specific nuclear structural 1 protein), myc- or FLAG-tagged, expressed in HEK293 cells (protein, UniProt Q8NEH6 1-495)
chain: T2 sequence
In the case of B3, the binding entry in assay [3] is “binds”.

B4: MNS1, yeast two-hybrid fusion (protein, UniProt Q8NEH6 1-495)
chain: T2 sequence
With B4, the binding entry in assay [4] and in assay [5] was “binds” throughout.

B5: CCDC114 (ODA docking complex component), myc- or FLAG-tagged, expressed in HEK293 cells (protein, UniProt Q96M63 1-670)
chain: T1 sequence
Turning to B5, the binding entry in assay [2] is on record as “binds”.

B6: CCDC114, yeast two-hybrid fusion (protein, UniProt Q96M63 1-670)
chain: T1 sequence
Regarding B6, in assay [4], the binding result is listed as “binds”.

B7: DNAI1 (ODA protein), myc- or FLAG-tagged, expressed in HEK293 cells (protein, UniProt Q9UI46 1-699)
chain: MIPASAKAPHKQPHKQSISIGRGTRKRDEDSGTEVGEGTDEWAQSKATVRPPDQLELTDAELKEEFTRILTANNPHAPQNIVRYSFKEGTYKPIGFVNQLAVHYTQVGNLIPKDSDEGRRQHYRDELVAGSQESVKVISETGNLEEDEEPKELETEPGSQTDVPAAGAAEKVTEEELMTPKQPKERKLTNQFNFSERASQTYNNPVRDRECQTEPPPRTNFSATANQWEIYDAYVEELEKQEKTKEKEKAKTPVAKKSGKMAMRKLTSMESQTDDLIKLSQAAKIMERMVNQNTYDDIAQDFKYYDDAADEYRDQVGTLLPLWKFQNDKAKRLSVTALCWNPKYRDLFAVGYGSYDFMKQSRGMLLLYSLKNPSFPEYMFSSNSGVMCLDIHVDHPYLVAVGHYDGNVAIYNLKKPHSQPSFCSSAKSGKHSDPVWQVKWQKDDMDQNLNFFSVSSDGRIVSWTLVKRKLVHIDVIKLKVEGSTTEVPEGLQLHPVGCGTAFDFHKEIDYMFLVGTEEGKIYKCSKSYSSQFLDTYDAHNMSVDTVSWNPYHTKVFMSCSSDWTVKIWDHTIKTPMFIYDLNSAVGDVAWAPYSSTVFAAVTTDGKAHIFDLAINKYEAICNQPVAAKKNRLTHVQFNLIHPIIIVGDDRGHIISLKLSPNLRKMPKEKKGQEVQKGPAVEIAKLDKLLNLVREVKIKT
Regarding B7, the binding result in assay [2] is reported as “no binding”.

The values are drawn from PMC6128653.
